Experimental data published in ChEMBL document CHEMBL4689842, “EUbOPEN Chemogenomics Library wave 1” (2021).

Tests used:
Format in all cases: toxicity, cell-based
U2OS = test: Multiplex assay against U2OS; details: human
Summary of the method: (§1)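 Cells were classed with CellPathfinder machine-learning gating, first as Hoechst high-intensity objects or normal cells, then (normal cells) as healthy, pyknosed or fragmented nuclei, and finally (pyknosed cells) as mitotic or apoptotic. Staining of live cells at seeding used Hoechst33342, BioTracker Green Microtubule Cytoskeleton Dye, MitoTracker Red and Annexin V Alexa Fluor 680, with imaging on a CQ1 microscope at 37°C and 5% CO2 after compound addition. Tubulin, mitochondrial-mass and membrane-permeability phenotypes are per cents of healthy-nucleus cells.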

Fibroblast = test: Multiplex assay against human fibroblast; summary of the method: as §1
HEK-293T = test: Multiplex assay against HEK293T; details: human; summary of the method: as §1
[1] = 12 h, 1 µM, compound concentration 1 uM, replicate 1
[2] = 12 h, 1 µM, compound concentration 1 uM, replicate 2
[3] = 12 h, 10 µM, compound concentration 10 uM, replicate 1
[4] = 12 h, 10 µM, compound concentration 10 uM, replicate 2
[5] = 24 h, 1 µM, compound concentration 1 uM, replicate 1
[6] = 24 h, 1 µM, compound concentration 1 uM, replicate 2
[7] = 24 h, 10 µM, compound concentration 10 uM, replicate 1
[8] = 24 h, 10 µM, compound concentration 10 uM, replicate 2

How did the “Population Fragmented Nuclei (%)” value (U2OS; [1]) turn out when `CNCc1ccc(-c2cc(-c3nc(-c4ccc(S(=O)(=O)C(C)C)cc4)cnc3N)on2)cc1` [BERZOSERTIB] was run?
Its value is 11% and 96%.

And the “Population Normal (%)” value (U2OS; [1])?
Its value is 68% and 18%.

What about the “Population Pyknosed Nuclei (%)” value (U2OS; [1]) of the same compound?
Its value is 82% and 2%.

And the “Population Mitochondria Different-Phenotype (%)” value (U2OS; [2])?
The value was 35% and 0%.

And the “Population Tubulin-Different-Phenotype (%)” value (U2OS; [2])?
The value was 14% and 77%.

And the “Total Cell Count” value (U2OS; [2])?
The value was 88 and 359.

And the “Population Fragmented Nuclei (%)” value (U2OS; [3])?
Its value is 26% and 94%.

And the “Population Pyknosed Nuclei (%)” value (U2OS; [3])?
The value was 68% and 5%.

What about the “Total Cell Count” value (U2OS; [3]) of the same compound?
Its value is 348 and 3110.

And the “Population Pyknosed Nuclei (%)” value (U2OS; [4])?
Its value is 51% and 1%.

And the “Population Tubulin-Different-Phenotype (%)” value (U2OS; [4])?
Its value is 10% and 75%.

What about the “Total Cell Count” value (U2OS; [4]) of the same compound?
Its value is 293 and 3113.

And the “Population Fragmented Nuclei (%)” value (U2OS; [5])?
The value was 98% and 22%.

And the “Population Mitochondria Different-Phenotype (%)” value (U2OS; [5])?
The value was 0% and 55%.

And the “Population Pyknosed Nuclei (%)” value (U2OS; [5])?
The value was 0% and 66%.

And the “Population Healthy Nuclei (%)” value (U2OS; [6])?
The value was 20% and 1%.

What about the “Population Mitochondria Different-Phenotype (%)” value (U2OS; [7]) of the same compound?
Its value is 0% and 61%.

What about the “Total Cell Count” value (U2OS; [7]) of the same compound?
The value was 3346 and 325.

And the “Population Membrane Permeable-Phenotype (%)” value (U2OS; [8])?
Its value is 31% and 100%.

And the “Population Pyknosed Nuclei (%)” value (U2OS; [8])?
The value was 45% and 0%.

And the “Total Cell Count” value (U2OS; [8])?
The value was 232 and 3493.

And the “Population Healthy Nuclei (%)” value (Fibroblast; [1])?
Its value is 23% and 4%.

What about the “Population Normal (%)” value (Fibroblast; [1]) of the same compound?
Its value is 36% and 0%.

And the “Total Cell Count” value (Fibroblast; [1])?
The value was 775 and 2624.

What about the “Population Healthy Nuclei (%)” value (Fibroblast; [2]) of the same compound?
Its value is 17% and 1%.

And the “Population Mitotic Cells (%)” value (Fibroblast; [2])?
Its value is 52% and 0%.

What about the “Population Normal (%)” value (Fibroblast; [2]) of the same compound?
The value was 31% and 4%.

What about the “Population Pyknosed Nuclei (%)” value (Fibroblast; [2]) of the same compound?
The value was 35% and 1%.

What about the “Total Cell Count” value (Fibroblast; [2]) of the same compound?
The value was 382 and 3244.

What about the “Population Normal (%)” value (Fibroblast; [3]) of the same compound?
Its value is 35% and 0%.

And the “Population Healthy Nuclei (%)” value (Fibroblast; [4])?
The value was 24% and 4%.

What about the “Population Mitotic Cells (%)” value (Fibroblast; [4]) of the same compound?
Its value is 51% and 0%.

And the “Population Normal (%)” value (Fibroblast; [4])?
Its value is 30% and 3%.

What about the “Population Pyknosed Nuclei (%)” value (Fibroblast; [4]) of the same compound?
The value was 21% and 2%.

And the “Total Cell Count” value (Fibroblast; [4])?
Its value is 441 and 3099.

And the “Population Apoptotic (%)” value (Fibroblast; [5])?
The value was 0% and 42%.

What about the “Population Healthy Nuclei (%)” value (Fibroblast; [5]) of the same compound?
Its value is 0% and 33%.

What about the “Population Normal (%)” value (Fibroblast; [5]) of the same compound?
The value was 0% and 32%.

And the “Total Cell Count” value (Fibroblast; [5])?
The value was 2900 and 801.

What about the “Population Healthy Nuclei (%)” value (Fibroblast; [6]) of the same compound?
Its value is 19% and 3%.

What about the “Population Mitotic Cells (%)” value (Fibroblast; [6]) of the same compound?
Its value is 62% and 0%.

What about the “Population Normal (%)” value (Fibroblast; [6]) of the same compound?
The value was 30% and 3%.

And the “Population Pyknosed Nuclei (%)” value (Fibroblast; [6])?
The value was 26% and 2%.

And the “Total Cell Count” value (Fibroblast; [6])?
The value was 391 and 3227.

What about the “Population Apoptotic (%)” value (Fibroblast; [7]) of the same compound?
The value was 0% and 43%.

And the “Population Healthy Nuclei (%)” value (Fibroblast; [7])?
The value was 0% and 30%.

And the “Population Mitotic Cells (%)” value (Fibroblast; [7])?
The value was 0% and 56%.

And the “Population Normal (%)” value (Fibroblast; [7])?
The value was 0% and 31%.

And the “Population Pyknosed Nuclei (%)” value (Fibroblast; [7])?
Its value is 0% and 50%.

And the “Total Cell Count” value (Fibroblast; [7])?
Its value is 2858 and 947.

What about the “Population Healthy Nuclei (%)” value (Fibroblast; [8]) of the same compound?
Its value is 6% and 23%.

And the “Population Membrane Permeable-Phenotype (%)” value (Fibroblast; [8])?
The value was 50% and 11%.

What about the “Population Normal (%)” value (Fibroblast; [8]) of the same compound?
Its value is 2% and 25%.

And the “Total Cell Count” value (Fibroblast; [8])?
The value was 3125 and 436.

What about the “Population Healthy Nuclei (%)” value (HEK-293T; [1]) of the same compound?
The value was 4% and 14%.

What about the “Population Pyknosed Nuclei (%)” value (HEK-293T; [1]) of the same compound?
Its value is 1% and 5%.

What about the “Population Healthy Nuclei (%)” value (HEK-293T; [2]) of the same compound?
The value was 2% and 21%.

And the “Population Membrane Permeable-Phenotype (%)” value (HEK-293T; [2])?
Its value is 18% and 66%.

What about the “Population Normal (%)” value (HEK-293T; [2]) of the same compound?
Its value is 71% and 20%.

What about the “Population Pyknosed Nuclei (%)” value (HEK-293T; [2]) of the same compound?
The value was 2% and 12%.

What about the “Population Apoptotic (%)” value (HEK-293T; [4]) of the same compound?
Its value is 31% and 7%.

And the “Population Healthy Nuclei (%)” value (HEK-293T; [4])?
The value was 2% and 30%.

And the “Population Membrane Permeable-Phenotype (%)” value (HEK-293T; [4])?
Its value is 0% and 31%.

And the “Population Normal (%)” value (HEK-293T; [4])?
Its value is 65% and 13%.

And the “Population Pyknosed Nuclei (%)” value (HEK-293T; [4])?
The value was 2% and 13%.

And the “Population Healthy Nuclei (%)” value (HEK-293T; [5])?
The value was 5% and 26%.

What about the “Population Apoptotic (%)” value (HEK-293T; [6]) of the same compound?
Its value is 12% and 2%.

And the “Population Fragmented Nuclei (%)” value (HEK-293T; [6])?
The value was 94% and 19%.

What about the “Population Healthy Nuclei (%)” value (HEK-293T; [6]) of the same compound?
Its value is 2% and 49%.

What about the “Population Normal (%)” value (HEK-293T; [6]) of the same compound?
Its value is 66% and 14%.

What about the “Population Apoptotic (%)” value (HEK-293T; [7]) of the same compound?
The value was 59% and 11%.

And the “Population Mitochondria Different-Phenotype (%)” value (HEK-293T; [7])?
The value was 10% and 2%.

And the “Population Fragmented Nuclei (%)” value (HEK-293T; [8])?
Its value is 95% and 19%.

What about the “Population Healthy Nuclei (%)” value (HEK-293T; [8]) of the same compound?
Its value is 1% and 61%.

And the “Population Normal (%)” value (HEK-293T; [8])?
Its value is 63% and 13%.

And the “Population Pyknosed Nuclei (%)” value (HEK-293T; [8])?
The value was 2% and 19%.

A number of entries come with more than one value. The list is limited to them. There may be further records. The values listed for one entry are repeated measurements (runs, samples, wells, individuals or studies).
